Data from PubChem BioAssay AID2451 (National Center for Advancing Translational Sciences (NCATS), 2010).
Several values for one entry are separate records, joined by “and”; a condition that tells them apart may be missing. Identical values can stand only once. In all, about 290,000 compounds went through this assay and about 2,100 (0.72%) were called active. The inconclusive results got no clear call from the source; some entries with a clear call stand among them for comparison. Calls follow the shape of the dose curve; as a rule, active = well fitted inhibition curve with a large enough effect; inconclusive = small, poorly fitted or top-dose-only effect, or effect the other way; inactive = flat fitted curve, though single readings scatter. Where the call is inconclusive, the potency comes from a doubtful curve fit.

These compounds were tested against Fructose-bisphosphate aldolase (Giardia intestinalis (strain ATCC 50803 / WB clone C6)) (UniProt A8B2U2) (assay: qHTS Assay for Inhibitors of Fructose-1,6-bisphosphate Aldolase from Giardia Lamblia). Conditions: purified Giardia FBPA; activity, negative = inhibition: at 59.6 µM (top of the series) unless noted.
Chain of UniProt A8B2U2 (A8B2U2 whole entry, looked up): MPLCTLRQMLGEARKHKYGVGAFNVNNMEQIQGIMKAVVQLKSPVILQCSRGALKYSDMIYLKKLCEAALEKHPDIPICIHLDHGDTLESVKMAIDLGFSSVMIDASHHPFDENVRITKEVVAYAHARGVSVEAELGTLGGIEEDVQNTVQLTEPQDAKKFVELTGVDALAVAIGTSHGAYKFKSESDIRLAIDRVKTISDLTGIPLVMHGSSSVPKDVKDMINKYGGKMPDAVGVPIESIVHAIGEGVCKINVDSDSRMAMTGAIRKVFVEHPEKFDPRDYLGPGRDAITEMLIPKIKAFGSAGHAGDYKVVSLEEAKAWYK
Procedure, shortened: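 Giardia FBPA (40 nM reagent) was preincubated 10 min at RT with compound (up to 57.5 uM final), then substrate plus GAPDH/TPI/NAD/arsenate coupling system with diaphorase/resazurin was added; resorufin fluorescence (525/598 nm) was read after 20 min.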
% is scaled to controls: 0 for no effect and ±100 for the full control effect; potency is read from the fitted curve at half-maximal effect; tags tell the direction and shape of the fitted curve.
Also: nearly all actives have a fitted effect of over 55% in size.

Structure (SMILES)	Potency	activity, negative = inhibition
COCCNC(=S)N1CCc2cc(OC)c(OC)cc2C1COc1ccc(C(C)C)cc1 (centres undefined)	inactive	–
COCCCNC(=O)c1cccn2c(=O)c3cc4ccccc4cc3nc12	inconclusive: 7.92 µM [inhibitor, partial curve]	–
CCCOc1ccc(C(=O)NNC(=S)NC(=O)c2ccco2)cc1	inconclusive: 19.9 µM [activator, single point]	–
O=C(c1ccco1)N(Cc1ccco1)c1ccc(O)cc1	inactive	–
O=C(O)/C=C/c1ccc(S(=O)(=O)Nc2ccc3[nH]c(=O)[nH]c3c2)cc1	inconclusive: 5.62 µM [inhibitor, partial curve]	–
COC(=O)CCC(=O)OC1(C)C(=O)C=C2C=C(C3CC3)N(C3CC3)C=C2C1=O (centres undefined)	inconclusive: 316 nM [inhibitor, full curve] and inconclusive: 177 nM [inhibitor, partial curve]	–
CC(C)(C)c1cc(CN2CCCCC2)cc(C(C)(C)C)c1O	inconclusive: 44.6 µM [inhibitor, single point]	–
COc1ccnc(CSC(N)=Nc2ccc(F)cc2)c1	inconclusive: 15.8 µM [inhibitor, single point]	–
N#C/C(=N\Nc1ccc([N+](=O)[O-])cc1)C(=N)N1CCOCC1	inactive	–
O=C(Nc1cccc(-c2cn3cccnc3n2)c1)c1ccc(Br)o1	inactive	–
Cc1ccc(C)c(-n2[nH]c3c4c(ccc3c2=O)C(=O)c2ccccc2C4=O)c1	inconclusive: 9.98 µM [inhibitor, partial curve]	–
CCC(C)NC(=O)COCc1cc(-c2ccc3c(c2)OCO3)on1 (centres undefined)	inactive	–
O=C(CN1C(=O)c2ccc([N+](=O)[O-])cc2C1=O)NCc1ccc(C(=O)O)cc1	inactive	–
Cc1ccccc1-n1nnnc1-c1ccccc1	inconclusive: 19.9 µM [inhibitor, partial curve]	–
COc1ccc(C(=O)NNC(=O)C2=NN(c3ccccc3)C(=O)CC2)cc1	inconclusive: 0.316 µM [activator, full curve]	–
O=C(C1CCCCC1)N1CCCc2ccccc21	inactive	–
COC(=O)[C@@]1(Cc2ccc(OC)cc2)[C@H]2c3cc(C(=O)N4CCCC4)n(Cc4cc(F)c(F)c(F)c4)c3C[C@H]2CN1C(=O)c1ccccc1	inactive	–
CN1CCN(c2nc(-c3ccc(Br)cc3)nnc2-c2ccccc2)CC1	inactive	–
COCCCNC(=S)N1CCCN(c2nc3cc(C)c(C)cc3cc2C#N)CC1	inconclusive: 17.7 µM [inhibitor, single point]	–
COc1ccc(N=Nc2nc3ccc(Br)cc3n2C)cc1	inconclusive: 3.97 µM [inhibitor, full curve, poor fit]	–
CCOC(=O)c1cc2n(c1/N=C/N(C)C)-c1ccccc1C2=O	inconclusive: 22.3 µM [inhibitor, partial curve]	–
O=C1c2ccccc2NC(c2ccccc2O)N1O (centres undefined)	inconclusive: 14.1 µM [inhibitor, single point]	–
COc1cc(C2C3=C(CC(c4ccco4)CC3=O)Nc3ccccc3N2C(C)=O)cc(OC)c1OC (centres undefined)	inconclusive: 22.3 µM [inhibitor, partial curve]	–
COc1ccc(CCN(C)CC(=O)Nc2cc(C)nc3ccccc23)cc1OC	inconclusive: 7.06 µM [inhibitor, partial curve]	–
N#Cc1cccc(N=c2ssnc2Cl)c1	active: 19.9 µM	–

Structure (SMILES)	Potency	activity, negative = inhibition
CN(C)C(CNC(=O)c1cnc(Cl)c(Cl)c1)c1ccccc1 (centres undefined)	inconclusive: 14.1 µM [inhibitor, partial curve]	–
CCOC(=O)c1c(C)n(-c2ccc(C)cc2)c2ccc(OCC(O)CNCC3CCCO3)cc12 (centres undefined)	inconclusive: 19.9 µM [inhibitor, partial curve]	–
C=CCN1C=C2C(=O)C(C)(OC(=O)CCc3ccccc3)C(=O)C=C2C=C1c1ccc(C#N)cc1 (centres undefined)	inconclusive: 1.26 µM [inhibitor, partial curve] and inconclusive: 1.99 µM [inhibitor, partial curve]	–
C=CCn1c(SCc2cc(C(=O)OC)c(C)o2)nnc1-c1ccncc1	inconclusive: 17.8 µM [inhibitor, partial curve]	–
CCCCc1ccc(NC(=O)C(C)CC)cc1 (centres undefined)	inconclusive: 15.8 µM [inhibitor, partial curve]	–
CN(C)c1ccc(NC(=O)Oc2ccccc2)cc1	inconclusive: 2.23 µM [inhibitor, full curve, poor fit]	–
CCOCCCNC(=O)c1cccc(OC2CCN(S(C)(=O)=O)CC2)c1	inactive	–
COc1ccc(CNCC(=O)Nc2cc(OC)cc(OC)c2)cc1	inconclusive: 15.8 µM [inhibitor, partial curve]	–
Cc1ccc(Cl)cc1NC(=O)CNCC(c1ccccc1)N(C)C (centres undefined)	inconclusive: 17.8 µM [inhibitor, partial curve]	–
Cc1ccc(Cl)cc1N1CCN(C(=O)c2noc(C(C)C)c2[N+](=O)[O-])CC1	inactive	–
O=C(O)c1cc(-c2ccccn2)n[nH]1	active: 6.31 µM	–
COc1ccccc1Nc1cc(C(=O)NCCCN2CCOCC2)c2ccccc2n1	inactive	–
COc1ccc(CN2CCN(CCSc3ccc(C)cc3)CC2)c(OC)c1OC	inconclusive: 25.1 µM [inhibitor, partial curve]	–
Cc1ccnc2c(N3C(=O)C4C5c6ccccc6C(c6ccccc65)C4C3=O)cccc12 (centres undefined)	inactive	–
O=C(OCc1ccc([N+](=O)[O-])cc1)c1ccc2ccccc2n1	inactive	–
CCN(CC)CCCN1C=C2C(=O)C(C)(OC(=O)C3CCCC3)C(=O)C(c3ccccc3)=C2C=C1CCCC(=O)OC (centres undefined)	inconclusive: 0.63 µM [inhibitor, full curve]	inactive: -27.3% [at 12.9 µM]
O=C(O)c1oc2ccccc2c1CSCc1ccccc1	inconclusive: 17.7 µM [activator, single point]	–
Nc1ccc(C(=O)NC23CC4CC(CC(C4)C2)C3)cc1	inactive	–
CC1CC(C)CN(CCCNC(=O)c2ccc3c(c2)ncn3C2CCCC2)C1 (centres undefined)	inactive	–
O=C(CSc1nnc(-c2ccccn2)o1)Nc1ccccc1C(F)(F)F	inactive	–
Clc1cccc2sc(N3CCCC3)nc12	inactive	–
CCCc1cc(C(N)=O)c(NC(=O)C2CCCO2)s1 (centres undefined)	inactive	–
CC[C@](C)(CN(C)C)OC(=O)c1ccccc1	inactive	–
Cc1ccccc1OCCn1c(=S)[nH]c2c(N)ncnc21	inconclusive: 3.98 µM [inhibitor, partial curve]	–
O=C(O)c1ccc(NS(=O)(=O)c2cc(Cl)ccc2Cl)cc1O	inconclusive: 15.8 µM [activator, single point]	–

Structure (SMILES)	Potency	activity, negative = inhibition
COc1cc(N[C@@H](C)CCCN)c2ncccc2c1	inconclusive: 3.54 µM [inhibitor, full curve]	–
CCCC/C=C/[C@H](c1ccccc1)[C@H](CO)Cc1ccc([N+](=O)[O-])cc1	inactive	–
COc1c(Cl)cccc1-c1cn2ccc(C)cc2n1	inconclusive: 19.9 µM [inhibitor, partial curve]	–
CCOC(=O)c1ccc(OCCOc2ccccc2C)cc1	inconclusive: 4.47 µM [activator, single point]	–
Cc1c(-c2csc(N)n2)c2ccccc2n1C	inconclusive: 11.2 µM [inhibitor, partial curve]	–
COc1ccccc1CNC(=O)COC(=O)c1n[nH]c2ccccc12	inconclusive: 17.7 µM [inhibitor, partial curve]	–
Cc1nc(NS(=O)(=O)c2cccc([N+](=O)[O-])c2)sc1C(C)(C)C	inconclusive: 28.2 µM [inhibitor, partial curve]	–
CC(C)C[C@H](NC(=O)c1nc[nH]c1C(=O)N(C)Cc1ccccc1)C(=O)OCc1ccccc1	inconclusive: 17.7 µM [inhibitor, single point]	–
Cn1cc(SCC(=O)N2CCCc3ccccc32)c2ccccc21	inconclusive: 22.3 µM [inhibitor, partial curve]	–
Cc1cc(/C=C2\SC(=S)NC2=O)c(C)n1C	inactive	–
FC(F)(F)c1ccc(NC(=S)NC2CCCCC2)cc1	inactive	–
CC(c1ccccc1)N1CCn2c(nc3cc(NC(=O)NC4CCCCC4)ccc32)C1 (centres undefined)	inconclusive: 3.54 µM [inhibitor, full curve]	–
Cc1ccc(NC(=S)NNC(=O)c2ccc(N3CCOCC3)c([N+](=O)[O-])c2)cc1C	inconclusive: 15.8 µM [activator, single point]	–
Cn1ncnc2c(=O)n(C)c(=O)nc1-2	active: 0.5 µM	–
O=C(Nn1c(O)c(C=C2N=c3ccccc3=N2)sc1=S)c1ccc(Cl)cc1	inconclusive: 7.94 µM [inhibitor, partial curve]	–
Nc1ccccc1SSc1ccccc1N	inconclusive: 15.8 µM [inhibitor, partial curve]	–
N#Cc1c(/N=C/c2ccc(Br)s2)sc2c1CCC2	inactive	–
COc1ccc(-n2nc(C(=O)NCC(=O)N3CCN(c4ccccc4)CC3)c3ccccc3c2=O)c(OC)c1	inactive	–
Cc1c(CN2CCc3c([nH]c4ccccc34)C2C2CCCCC2)cnn1C (centres undefined)	inactive	–
COc1cc(SC)ccc1C(=O)NC1CCCCC1	–	inconclusive: 26.6% [activator]
Cn1cccc1/C=N/NC(=O)c1ccccn1	inconclusive: 15.8 µM [inhibitor, single point]	–
CCn1c(SCc2ccccc2Cl)nc2ccccc21	inactive	–
CCOC(=O)[C@]1(C#N)[C@@H]2C=CC(C(N)=O)=CN2[C@@H](C(N)=O)[C@@H]1c1ccc(F)cc1	inconclusive: 19.9 µM [inhibitor, partial curve]	–
